In the supplement of paper PMC10126150:
Values marked as one replicate rest on one cluster of the flow cell; about a third of the high ones do not repeat.

Test system: ATP
Assay: switch fluorescence ratio, 500 uM ATP over buffer (Cy3 cluster intensity, sum of 5 cycles each) (fold (ratio)); higher = stronger signal-on switching upon ATP binding; sequences stand for … in TCGTCGGCAGCGTCAGATGTGTATAAGAGACAGTTTTTTTTTTTTTTTTTTTTTTTTT…TC
Conditions: aptamer strand: ATP DNA aptamer (quencher-CACCTGGGGGAGTATTGCGGAGGAAGG + anchor), 100 nM annealed; ATP concentration: 500 uM; one replicate
Method in brief: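 Per cluster, summed Cy3 intensity from the target cycles was divided by that from the buffer cycles to give the fluorescence ratio, then averaged per switch-domain sequence. Clusters outside 100-1000 RFU were excluded. The Cy3-labelled switching-strand clusters, on a modified Illumina MiSeq flow-cell, were annealed to 100 nM quencher-labelled ATP aptamer and imaged in selection buffer, then after 15 min with 500 uM ATP at 22 °C, for five cycles with NaOH stripping and re-annealing between them.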
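Note: ATP exposure 15 min at 22 °C before imaging.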

Row | Sequence | switch fluorescence ratio
1 | GTGAATTGCT | 0.991
2 | ATGGCGTGCG | 1
3 | CTACGGGGAT | 1.08
4 | GTCTGGAGAC | 0.961
5 | GCTCCTGAAG | 1.08
6 | AGGGCGGAAT | 1.01
7 | GCGGCCAATG | 0.995
8 | AAGTTTCCTA | 0.997
9 | CAACAAGGCG | 1.02
10 | GAACCGGAG | 1.05
11 | ACGTGTCATG | 1.01
12 | ATTACGCCCG | 1.12
13 | GGAGCGCGA | 1.07
14 | GCTGAAAGTC | 0.979
15 | TTAAATCAC | 1.05
16 | TTGACGAGCT | 1.09
17 | GCTCTATCAG | 1.01
18 | CGCATGACTC | 5.33
19 | TGCAACACGG | 1.18
20 | AATAAACTAT | 1.02
21 | AACCGTTTCC | 2.49
22 | ATAACTTAGA | 0.999
23 | TCTGATTTAT | 0.965
24 | GAGCTGTGGA | 1.03
25 | TCTGGTAGAT | 1.04
26 | TCCCAATCTG | 1.08

Row | Sequence | switch fluorescence ratio
27 | CACAATGACT | 1.15
28 | TTTGGTGGCC | 1.03
29 | CATTGGTACC | 1.05
30 | CCTATCGTAC | 3.06
31 | CATGGTCTTG | 0.988
32 | GTATAACTTC | 1
33 | TCACTCTTAT | 1.01
34 | AAGGGGGATA | 0.979
35 | TAAGCGCCA | 1.04
36 | ATCATTGGGG | 0.978
37 | ATACTAAGC | 1.03
38 | TCCCCCCCCT | 1.45
39 | GCTAATTGAA | 0.958
40 | TGGTCCCATT | 1.04
41 | TAGAAGGTAC | 1.05
42 | GTTGTGCGGA | 0.977
43 | CACGTAAGCA | 1.1
44 | AGAACCTGTT | 1.03
45 | CGTTGGGATG | 0.964
46 | GACGGGAGGC | 1.09
47 | ATGACTCTTA | 0.943
48 | CACCGGCCAT | 1.12
49 | ATGAATGTAG | 1
50 | AGTTTAAGGT | 1.03
51 | CGTCATAAGT | 1
52 | CGGTTCTCGC | 1.03

Row | Sequence | switch fluorescence ratio
53 | CAGCTTGCAT | 1.03
54 | CTGCGCGAGA | 1.12
55 | GAGGTTCTTG | 0.98
56 | GGCCCTAAGA | 0.969
57 | AGAAGCCACT | 0.974
58 | TTAGACTCAG | 1
59 | TGCCCCGGCT | 0.994
60 | AGCGTCCTAT | 0.993
61 | GCGGAACCCT | 1.09
62 | ACCCAAGGTT | 1.1
63 | GGGCCAGGCA | 1.05
64 | CAGGTAGTTT | 1.01
65 | GGCGAAAGGC | 1.1
66 | GTGGATTGCT | 0.946
67 | CGTCCACTGG | 1.08
68 | GTATGTGAGC | 0.972
69 | TTTATGCAGA | 1.07
70 | TATCGGGTTA | 0.956
71 | GCCAACTCCT | 1.1
72 | GAGAAATACA | 1.07
73 | GGTTTGTAGC | 1.03
74 | TTTGCTAGTC | 1.03
75 | AAGCCTGAGA | 1.01
76 | GTAAATCTGG | 0.993
77 | ATCTTAGAGT | 1.01
78 | GCCTCTGACG | 1.06

Row | Sequence | switch fluorescence ratio
79 | TCCCCGACCG | 1.25
80 | GTAACGGGGT | 0.991
81 | ATCGTTTGTC | 0.977
82 | TATTCAACCC | 1.03
83 | GGAACGGGAC | 1.14
84 | TGTGTGTGC | 1.02
85 | GAGTGGTGAG | 0.989
86 | TCTATTTCT | 1.03
87 | ATTGAGTCA | 0.995
88 | AGGTGCAAGT | 0.991
89 | TATGTGGATG | 1.03
90 | TTGTAACTAG | 1.01
91 | AATGTAGGTT | 1
92 | GAGGAAAGTC | 0.974
93 | TGTGGTGAGA | 0.971
94 | CAAACGAGGA | 1.02
95 | AGGTGATTGT | 1.02
96 | CGGGTGCGTT | 0.959
97 | TCTTAATAAA | 0.978
98 | ACCTTAGTTC | 1.03
99 | GTGTCCAATC | 1.01
100 | TGTACTAACG | 1.39
101 | ATGGCGGAGT | 1.02
